# Results published in PubChem BioAssay AID588855 (National Center for Advancing Translational Sciences (NCATS), 2011).
# The whole screen tested about 410,000 compounds, of which about 5,000 (1.2%) were called active. Inconclusive results, whose numbers are uncertain, are shown with a selection of clear calls. The call rests on the fitted dose curve; in most records, active means well fitted inhibition curve with a large enough effect; inconclusive means small, poorly fitted or top-dose-only effect; inactive means no such curve, though single readings can be large or run the other way. Potencies beside an inconclusive call are fits to weak or partial responses and may not hold up.
# Assay: qHTS for Inhibitors of TGF-b; further: nearly all actives have a fitted effect of over 65% in size
# Settings: HepG2 CAGA-GFP TGF-b/SMAD3 reporter, GFP fluorescence, 18 h, TGF-beta stimulated, 500 pg/mL final; series mostly up to 46.1 µM
# Outline: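 TGF-beta reporter screen: HEPG2 CAGA-GFP, 1% FBS, 500 pg/mL TGF-beta final, 18 h; per-cell GFP summed per well; curves fitted and categorized by class.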
# Potency means the concentration at half of the fitted maximal effect; tags describe the fitted curve by direction and shape.
row,SMILES,Potency
1,Cc1ccc(S(=O)(=O)N2C[C@@H]3CCCC[C@@H]3[C@@H](C)[C@H]2c2cn(Cc3ccccc3)c3ncccc23)cc1,"inconclusive: 2.82 µM [inhibitor, full curve, poor fit]"
2,CCC1CCCCN1CCCNC(=O)c1ccc2c(c1)N(Cc1cccc(C)c1)C(=O)c1ccccc1S2(=O)=O (stereo unspecified),"inconclusive: 28.2 µM [inhibitor, single point]"
3,Cc1c2cnn(CC(=O)NCCc3ccccc3)c(=O)c2c(C)n1Cc1ccccc1Cl,"inconclusive: 3.16 µM [inhibitor, partial curve]"
4,CCC(C)N(CC(=O)Nc1cccc(C)c1C)C(=O)CCl (stereo unspecified),active: 22.4 µM
5,CC(=O)c1c(OC(=O)c2cccc(Cl)c2)c2ccccc2n1C,"inconclusive: 2.24 µM [inhibitor, partial curve, poor fit]"
6,Cc1ccc(-c2c(C)sc3nc(CN4CCN(CC(=O)NC5CC5)CC4)[nH]c(=O)c23)cc1,"inconclusive: 35.5 µM [inhibitor, single point]"
7,O=C(Nc1ccccc1C(=O)O)c1cccc(F)c1,"inconclusive: 35.5 µM [inhibitor, single point]"
8,CN(C[C@H](Cc1ccccc1)N(C[C@@H](CC1CCCCC1)N(CCc1ccccc1)N=O)N=O)N=O,"inconclusive: 17.8 µM [inhibitor, single point]"
9,Cc1ccc(NC(=O)COc2ccccc2C(=O)Nc2ccccc2)cc1Cl,inactive
10,COc1cccc(-n2cc(C(=O)NCCc3cccc(C)c3)c3ccccc3c2=O)c1,"inconclusive: 35.5 µM [inhibitor, single point]"
11,Cc1ccc(C)c(N2CCN(C(=O)C(C)n3nc(C)c4sc5ccccc5c4c3=O)CC2)c1 (stereo unspecified),"inconclusive: 1.58 µM [inhibitor, partial curve, poor fit]"
12,C/C(=N\NC(=O)C12CCC(C)(C(=O)O1)C2(C)C)c1ccccc1O (stereo unspecified),"inconclusive: 11.2 µM [inhibitor, partial curve, poor fit]"
13,COc1ccc2oc(C(=O)OCC(=O)NC(=O)c3ccccc3)c(C)c2c1,inactive
14,O=C(NCC(c1cccnc1)N1CCOCC1)C(=O)Nc1cccc(Cl)c1 (stereo unspecified),inactive
15,CSc1ccc(CCNC(=O)c2sc3ncccc3c2-n2cccc2)cc1,"inconclusive: 17.8 µM [inhibitor, partial curve]"
16,Cc1ccc2nc(-c3ccc(NC(=O)Cc4cccs4)cc3)[nH]c2c1,"inconclusive: 35.5 µM [inhibitor, single point]"
17,N#Cc1ccsc1NC(=O)COC(=O)c1ccc2ccccc2c1,"inconclusive: 35.5 µM [inhibitor, single point]"
18,CC(C)N=C1CCCC1C(=S)SSC(=S)C1CCCC1=NC(C)C (stereo unspecified),"inconclusive: 0.447 µM [inhibitor, full curve, poor fit]"
19,Nn1c(SC/C=C/c2ccccc2)nnc1-c1ccco1,"inconclusive: 31.6 µM [inhibitor, single point]"
20,COc1ccc(C2NCCc3sccc32)cc1 (stereo unspecified),inactive
21,Nc1nnc(-c2ccc(Cl)c([N+](=O)[O-])c2)s1,inactive
22,CCn1c2ccccc2c2nc3cc(S(=O)(=O)N4CCOCC4)ccc3nc21,"inconclusive: 35.5 µM [inhibitor, single point]"

row,SMILES,Potency
1,CC(/C=C/c1ccco1)=N\NC(=O)c1cccc(Cl)c1,"inconclusive: 20 µM [inhibitor, single point]"
2,Clc1ccc(-c2nc3ccc(Br)cn3c2Cc2ccsc2)cc1,inactive
3,COc1ccc(C(C)C)cc1S(=O)(=O)NCCc1c(C)[nH]c2c(Cl)cccc12,"inconclusive: 35.5 µM [inhibitor, single point]"
4,NC(CCc1ccccc1)c1csc(Nc2ccc(C(=O)c3ccccc3)cc2)n1 (stereo unspecified),"inconclusive: 17.8 µM [inhibitor, partial curve, poor fit]"
5,Cc1ccc(-n2c(=O)c3c4c(sc3n3c(=S)[nH]nc23)CCC4)cc1,inactive
6,COc1cc2ccccc2cc1C(=O)Nc1ccc(C)cc1,"inconclusive: 35.5 µM [inhibitor, single point]"
7,Cc1ccc2[nH]c3c(c2c1)CN(C(=O)CN1c2ccc(F)cc2CCC1C)CC3 (stereo unspecified),"inconclusive: 35.5 µM [inhibitor, single point]"
8,COC(=O)c1sccc1N/C=C(\C#N)S(=O)(=O)C(C)(C)C,"inconclusive: 35.5 µM [inhibitor, single point]"
9,C[C@H](NC(=O)OC(C)(C)C)c1nnc(SCc2ccc(Cl)cc2Cl)o1,"inconclusive: 11.2 µM [inhibitor, partial curve]"
10,CC(C)c1ccc(NC(=O)c2cc(S(=O)(=O)NCCc3ccccc3)ccc2F)cc1,"inconclusive: 35.5 µM [inhibitor, single point]"
11,CCS(=O)(=O)c1nc(S(=O)(=O)c2ccc(C)cc2)c(N2CC(C)CC(C)C2)s1 (stereo unspecified),inactive
12,CCOc1ccc(S(=O)(=O)N2CCOCC2)c2ccccc12,inactive
13,CCn1c(SCc2ccccc2)nnc1-c1cccs1,inactive
14,Cc1ccc(S(=O)(=O)N2[C@@H](c3ccccc3F)C(C(=O)O)=CC[C@H]2c2cccs2)cc1,"inconclusive: 10 µM [inhibitor, partial curve, poor fit]"
15,O=c1cc(O)c2sc3nc4c(c(C(F)(F)F)c3c2[nH]1)CCCCC4,"inconclusive: 35.5 µM [inhibitor, single point]"
16,COC(=O)c1cnc(NNS(=O)(=O)c2ccc(C(F)(F)F)cc2)nc1C(F)(F)F,"inconclusive: 12.6 µM [inhibitor, partial curve]"
17,CCOc1ccccc1CN1CCN(Cc2csc(C(C)=O)c2)CC1CCO (stereo unspecified),inactive
18,CN(C)S(=O)(=O)N(CC(=O)NCCSCc1ccc(Cl)cc1Cl)c1ccccc1,"inconclusive: 22.4 µM [inhibitor, single point]"
19,N#CCCN1CCN(S(=O)(=O)c2ccc(C3CCCCC3)cc2)CC1,"inconclusive: 11.2 µM [inhibitor, single point]"
20,COc1ccc(C2=Nc3ccccc3NC(=O)C2N(CCc2ccccc2)C(=O)c2cccs2)cc1 (stereo unspecified),"inconclusive: 3.16 µM [inhibitor, full curve, poor fit]"
21,CSc1ccc(CCNC(=O)C2CCCN(S(=O)(=O)N(C)c3ccc(F)cc3)C2)cc1 (stereo unspecified),"inconclusive: 11.2 µM [inhibitor, partial curve, poor fit]"
22,CCOC(=O)c1c(NC(=O)CSc2nnc(-c3ccco3)o2)sc(C)c1C,inactive

row,SMILES,Potency
1,CCC1(c2ccc(F)cc2)NC(=O)N(CC(=O)Nc2cccc(S(=O)(=O)N3CCCCC3)c2)C1=O (stereo unspecified),"inconclusive: 22.4 µM [inhibitor, single point]"
2,CCOCCCNC(=O)CN1C(=O)CCn2nc(-c3cccn3C)cc21,inactive
3,Cc1cc(C)cc(-n2ncc3c2CCCC3NC(=O)c2cc(C)n(C)n2)c1 (stereo unspecified),"inconclusive: 35.5 µM [inhibitor, single point]"
4,O=S(=O)(CS(=O)(=O)c1ccccc1)c1ccccc1,inactive
5,O=C(NCc1ccccc1)C1=C[C@@H](C2CCCCC2)C[C@@H](OCc2ccc(CO)cc2)O1,"inconclusive: 0.501 µM [inhibitor, full curve, poor fit]"
6,Cc1cc2c(=Cc3ccc(N(C)C)cc3)c3ccccc3n2[n+]1C,active: 6.31 µM
7,Cc1c(N=Cc2cc(Br)cc(Br)c2O)cccc1C(=O)O,inactive
8,CCc1cnc(Nc2nc(C(N)Cc3ccc(F)cc3)cs2)nc1 (stereo unspecified),"inconclusive: 35.5 µM [inhibitor, single point]"
9,Cc1noc2ncnc(N3CCCC3)c12,inactive
10,Cc1ccc(NC(=O)Cn2cc(S(=O)(=O)Cc3ccccc3)c3ccccc32)cc1C,"inconclusive: 7.08 µM [inhibitor, partial curve]"
11,Cc1nc(N2CCN(Cc3nc4ccccc4[nH]3)CC2)c2oc3ccccc3c2n1,"inconclusive: 31.6 µM [inhibitor, partial curve, poor fit]"
12,Cc1nn(-c2ccccc2)c2c1C(=O)N(c1ccccc1)C(=O)C(C)(C)C2,inactive
13,CCc1ccc(S(=O)(=O)c2cn(C)c3ccc(C)cc3c2=O)cc1,inactive
14,O=C(Nc1ccc(Cl)c(C(F)(F)F)c1)C1Cc2c(-c3ccccc3Oc3ccccc3)ccnc2O1 (stereo unspecified),"inconclusive: 20 µM [inhibitor, single point]"
15,Cc1ccc(-n2nc(C(=O)N(C)c3ccccc3Cl)c3c4ccccc4n(C)c3c2=O)cc1,inactive
16,C#CCN(C[C@H]1[C@H](OC(=O)NCC2CCCCC2)[C@H](OC(=O)NCC2CCCCC2)C[C@H]2C(=O)N(c3ccccc3)C(=O)[C@@H]12)S(=O)(=O)c1ccc(C)cc1,inactive
17,CCOC(=O)C1(Cc2cccc(OC)c2)CCN(C/C=C/c2ccccc2)CC1,"inconclusive: 22.4 µM [inhibitor, single point]"
18,CN(C)CCCNc1c2ccccc2nc2ccccc12,"inconclusive: 3.98 µM [inhibitor, full curve, poor fit]"
19,Cc1ccc(CN(C)C(=O)CN2C(=O)NC3(CCCc4ccccc43)C2=O)c(C)c1 (stereo unspecified),inactive
20,Cc1cccc(C(=O)c2cn[nH]c2-c2ccc(C)cc2O)c1,"inconclusive: 35.5 µM [inhibitor, single point]"
21,CCOC(=O)c1ccc(N2C(=O)c3n[nH]c(C)c3C2c2ccc(CC)cc2)cc1 (stereo unspecified),"inconclusive: 3.55 µM [inhibitor, full curve, poor fit]"
22,CCN(CC)CCN(C(=O)c1ccc2c(c1)CCCC2)c1nc2c(C)cccc2s1,"inconclusive: 7.94 µM [inhibitor, partial curve, poor fit]"
